Measured values taken from patent publication US20250154219A1, “PEPTIDE ANALOGS” (Adepthera LLC, priority 2017, published 2025).

What was measured:
CLR/RAMP1 receptor = CLR/RAMP1 receptor (Homo sapiens, UniProt O60894+Q16602); experiment: CLR/RAMP1 cAMP assay, antagonist mode (CGRP-stimulated); type: cell-based; settings: antagonist mode
CLR/RAMP2 receptor = CLR/RAMP2 receptor (Homo sapiens, UniProt O60895+Q16602); experiment: CLR/RAMP2 arrestin assay, antagonist mode (ADM-stimulated); type: cell-based; settings: antagonist mode
Chain of CLR/RAMP2 receptor (Q16602 23-461): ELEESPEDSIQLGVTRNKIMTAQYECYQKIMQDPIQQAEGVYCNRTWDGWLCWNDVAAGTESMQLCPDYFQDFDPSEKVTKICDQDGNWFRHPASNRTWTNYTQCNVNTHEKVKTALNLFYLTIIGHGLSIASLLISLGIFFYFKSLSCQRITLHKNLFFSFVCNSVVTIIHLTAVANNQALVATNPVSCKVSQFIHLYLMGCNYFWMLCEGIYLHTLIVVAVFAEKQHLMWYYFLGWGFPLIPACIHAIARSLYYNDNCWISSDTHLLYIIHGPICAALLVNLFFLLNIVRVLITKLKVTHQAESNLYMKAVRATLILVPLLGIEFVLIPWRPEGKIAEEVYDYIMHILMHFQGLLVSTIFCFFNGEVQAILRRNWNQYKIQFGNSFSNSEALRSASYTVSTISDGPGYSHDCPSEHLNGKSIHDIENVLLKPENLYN
Chain of CLR/RAMP2 receptor (O60895 43-175): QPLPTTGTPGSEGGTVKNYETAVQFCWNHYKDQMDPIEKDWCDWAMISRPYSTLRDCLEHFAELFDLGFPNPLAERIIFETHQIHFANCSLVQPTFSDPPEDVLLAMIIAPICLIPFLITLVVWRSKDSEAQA

Chain of CLR/RAMP1 receptor (Q16602 23-461): as the sequence (Q16602 23-461) above
Chain of CLR/RAMP1 receptor (O60894 27-148): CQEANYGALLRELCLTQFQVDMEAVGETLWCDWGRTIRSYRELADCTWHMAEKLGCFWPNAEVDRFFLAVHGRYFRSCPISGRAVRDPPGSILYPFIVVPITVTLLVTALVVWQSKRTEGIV

Row | SMILES | CLR/RAMP1 Max Activity % of positive control (antagonist) (CLR/RAMP1 receptor) | CLR/RAMP2 Max Activity % of positive control (antagonist) (CLR/RAMP2 receptor)
1 | CCCCCCCCCCCCCCCC(=O)N[C@@H](CCCCN)C(=O)N[C@H](C(=O)N[C@@H](CCC(N)=O)C(=O)N[C@@H](CCCCN)C(=O)N[C@@H](CC(C)C)C(=O)N[C@@H](C)C(=O)N[C@@H](Cc1c[nH]cn1)C(=O)N[C@@H](CCC(N)=O)C(=O)N[C@H](C(=O)N[C@@H](CO)C(=O)N[C@@H](C)C(=O)N1CCC[C@H]1C(=O)N[C@H](C(=O)N[C@@H](CC(=O)O)C(=O)N1CCC[C@H]1C(=O)N[C@@H](CO)C(=O)N[C@@H](CO)C(=O)N1CCC[C@H]1C(=O)N[C@@H](Cc1c[nH]cn1)C(=O)N[C@@H](CO)C(=O)N[C@@H](Cc1ccc(O)cc1)C(N)=O)C(C)C)[C@@H](C)CC)C(C)C [SEQ ID NO: 123] | 94 % of positive control | 101 % of positive control
2 | CC[C@H](C)[C@H](NC(=O)[C@H](CCCCN)NC(=O)[C@H](CO)NC(=O)[C@H](CCCNC(=N)N)NC(=O)[C@@H]1CCCN1C(=O)[C@H](C)NC(=O)[C@@H](NC(=O)[C@H](CC(N)=O)NC(=O)[C@H](CC(=O)O)NC(=O)[C@H](CCCCN)NC(=O)[C@H](CC(=O)O)NC(=O)[C@@H]1CCCN1C(=O)CNC(=O)[C@H](CCSC)NC(=O)[C@H](CC(C)C)NC(=O)[C@H](CCC(N)=O)NC(=O)[C@H](Cc1c[nH]c2ccccc12)NC(=O)[C@H](CC(C)C)NC(=O)[C@H](CCCNC(=N)N)NC(=O)[C@H](Cc1c[nH]cn1)NC(=O)[C@H](C)NC(=O)[C@H](CC(C)C)NC(=O)[C@H](CCCCN)NC(=O)[C@H](CCC(N)=O)NC(=O)[C@@H](NC(=O)[C@@H](NC(C)=O)[C@@H](C)O)C(C)C)C(C)C)C(=O)N[C@@H](CO)C(=O)N1CCC[C@H]1C(=O)N[C@@H](CCC(N)=O)C(=O)NCC(=O)N[C@@H](Cc1ccc(O)cc1)C(N)=O [SEQ ID NO: 116, reference compound] | 101 % of positive control | 101 % of positive control
3 | CCCCCCCCCCCCCCCC(=O)N[C@@H](CCCCN)C(=O)N[C@H](C(=O)N[C@@H](CCC(N)=O)C(=O)N[C@@H](CCCCN)C(=O)N[C@@H](CC(C)C)C(=O)N[C@@H](C)C(=O)N[C@@H](Cc1c[nH]cn1)C(=O)N[C@@H](CCC(N)=O)C(=O)N[C@H](C(=O)N[C@@H](Cc1ccc(O)cc1)C(=O)N[C@@H](CCC(N)=O)C(=O)N[C@@H](Cc1ccccc1)C(=O)N[C@H](C(=O)N[C@@H](CC(=O)O)C(=O)N[C@@H](CCCCN)C(=O)N[C@@H](CO)C(=O)N[C@@H](C)C(=O)N1CCC[C@H]1C(=O)N[C@H](C(=O)N[C@@H](CC(=O)O)C(=O)N1CCC[C@H]1C(=O)N[C@@H](CO)C(=O)N[C@@H](CO)C(=O)N1CCC[C@H]1C(=O)N[C@@H](Cc1c[nH]cn1)C(=O)N[C@@H](CO)C(=O)N[C@@H](Cc1ccc(O)cc1)C(N)=O)C(C)C)[C@@H](C)O)[C@@H](C)CC)C(C)C [SEQ ID NO: 125] | 93 % of positive control | 100 % of positive control
4 | CCCCCCCCCCCCCCCC(=O)N[C@@H](CCCCN)C(=O)N[C@H](C(=O)N[C@@H](CCC(N)=O)C(=O)N[C@@H](CCCCN)C(=O)N[C@@H](CC(C)C)C(=O)N[C@@H](C)C(=O)N[C@@H](Cc1c[nH]cn1)C(=O)N[C@@H](CCC(N)=O)C(=O)N[C@H](C(=O)N[C@@H](Cc1ccc(O)cc1)C(=O)N[C@@H](CCC(N)=O)C(=O)N[C@@H](Cc1ccccc1)C(=O)N[C@H](C(=O)N[C@@H](CC(=O)O)C(=O)N[C@@H](CCCCN)C(=O)N[C@@H](CC(=O)O)C(=O)N[C@H](C(=O)N[C@@H](C)C(=O)N1CCC[C@H]1C(=O)N[C@@H](CCCNC(=N)N)C(=O)N[C@@H](CO)C(=O)N[C@@H](CCCCN)C(=O)N[C@H](C(=O)N[C@@H](CO)C(=O)N1CCC[C@H]1C(=O)N[C@@H](CCC(N)=O)C(=O)NCC(=O)N[C@@H](Cc1ccc(O)cc1)C(N)=O)[C@@H](C)CC)C(C)C)[C@@H](C)O)[C@@H](C)CC)C(C)C [SEQ ID NO: 119] | 95 % of positive control | 101 % of positive control
5 | CCCCCCCCCCCCCCCC(=O)N[C@@H](CCCCN)C(=O)N[C@H](C(=O)N[C@@H](CCC(N)=O)C(=O)N[C@@H](CC(N)=O)C(=O)N[C@@H](CC(C)C)C(=O)N[C@@H](CO)C(=O)N[C@@H](Cc1c[nH]cn1)C(=O)N[C@@H](CCCNC(=N)N)C(=O)N[C@@H](CC(C)C)C(=O)N[C@@H](Cc1c[nH]c2ccccc12)C(=O)N[C@@H](CCC(N)=O)C(=O)N[C@@H](CC(C)C)C(=O)N[C@@H](CCSC)C(=O)NCC(=O)N1CCC[C@H]1C(=O)N[C@@H](C)C(=O)NCC(=O)N[C@@H](CO)C(=O)N[C@@H](C)C(=O)N1CCC[C@H]1C(=O)N[C@H](C(=O)N[C@@H](CC(=O)O)C(=O)N1CCC[C@H]1C(=O)N[C@@H](CO)C(=O)N[C@@H](CO)C(=O)N1CCC[C@H]1C(=O)N[C@@H](Cc1c[nH]cn1)C(=O)N[C@@H](CO)C(=O)N[C@@H](Cc1ccc(O)cc1)C(N)=O)C(C)C)C(C)C [SEQ ID NO: 120] | 94 % of positive control | 98 % of positive control
6 | CCCCCCCCCCCCCCCC(=O)N[C@H](C(=O)N[C@H](C(=O)N[C@@H](CCC(N)=O)C(=O)N[C@@H](CCCCN)C(=O)N[C@@H](CC(C)C)C(=O)N[C@@H](C)C(=O)N[C@@H](Cc1c[nH]cn1)C(=O)N[C@@H](CCC(N)=O)C(=O)N[C@H](C(=O)N[C@@H](Cc1ccc(O)cc1)C(=O)N[C@@H](CCC(N)=O)C(=O)N[C@@H](Cc1ccccc1)C(=O)N[C@H](C(=O)N[C@@H](CC(=O)O)C(=O)N[C@@H](CCCCN)C(=O)N[C@@H](CC(=O)O)C(=O)N[C@@H](CCCCN)C(=O)N[C@@H](CC(=O)O)C(=O)N[C@@H](CC(N)=O)C(=O)N[C@@H](CO)C(=O)N[C@@H](C)C(=O)N1CCC[C@H]1C(=O)N[C@H](C(=O)N[C@@H](CC(=O)O)C(=O)N1CCC[C@H]1C(=O)N[C@@H](CO)C(=O)N[C@@H](CO)C(=O)N1CCC[C@H]1C(=O)N[C@@H](Cc1c[nH]cn1)C(=O)N[C@@H](CO)C(=O)N[C@@H](Cc1ccc(O)cc1)C(N)=O)C(C)C)[C@@H](C)O)[C@@H](C)CC)C(C)C)[C@@H](C)O [SEQ ID NO: 77] | 101 % of positive control | 100 % of positive control
7 | CC[C@H](C)[C@H](NC(=O)[C@H](CCCCN)NC(=O)[C@H](CO)NC(=O)[C@H](CCCNC(=N)N)NC(=O)[C@@H]1CCCN1C(=O)[C@H](C)NC(=O)[C@@H](NC(=O)[C@H](CC(N)=O)NC(=O)[C@H](CC(=O)O)NC(=O)[C@H](CCCCN)NC(=O)[C@H](CC(=O)O)NC(=O)[C@H](CCCCN)NC(=O)[C@H](CC(=O)O)NC(=O)[C@@H](NC(=O)[C@H](Cc1ccccc1)NC(=O)[C@H](CCCNC(=N)N)NC(=O)[C@H](CO)NC(=O)[C@H](CC(C)C)NC(=O)[C@H](CC(C)C)NC(=O)CNC(=O)[C@H](C)NC(=O)[C@H](CC(C)C)NC(=O)[C@H](CCCNC(=N)N)NC(=O)[C@H](Cc1c[nH]cn1)NC(=O)[C@@H](NC(=O)[C@@H](NC(C)=O)C(C)C)[C@@H](C)O)[C@@H](C)O)C(C)C)C(=O)N[C@@H](CO)C(=O)N1CCC[C@H]1C(=O)N[C@@H](CCC(N)=O)C(=O)NCC(=O)N[C@@H](Cc1ccc(O)cc1)C(N)=O [SEQ ID NO: 115, reference compound] | 99 % of positive control | 100 % of positive control
